Assay results as given in PubChem BioAssay (NCATS).
“And” between values parts separate entries of the source, which are not always exact repeats. Identical values can stand only once. The shares of active, inactive and inconclusive entries below differ from those in the screen. For some of these results: Potencies of inconclusive entries are doubtful fits and often do not repeat. The source made the active and inactive calls. Unless noted, the call rests on the fitted dose curve; in most records, active means well fitted curve in the direction sought with a large enough effect in the repeat runs; inconclusive means weak or mixed curves; inactive means no such curve, though single readings can be large; an effect the other way counts as inactive or inconclusive.

Assays:
[1] = target: Cytochrome P450 2D6 (Homo sapiens) (UniProt P10635); assay: Cytochrome P450 family 2 subfamily D member 6 (CYP2D6) small molecule antagonists: luciferase biochemical (cell-free) qHTS assay (AID 1645840); further: nearly all actives have a fitted effect of over 55% in size; further: potency means the concentration at half of the fitted maximal effect
Sequence of UniProt P10635 (P10635 whole entry, looked up): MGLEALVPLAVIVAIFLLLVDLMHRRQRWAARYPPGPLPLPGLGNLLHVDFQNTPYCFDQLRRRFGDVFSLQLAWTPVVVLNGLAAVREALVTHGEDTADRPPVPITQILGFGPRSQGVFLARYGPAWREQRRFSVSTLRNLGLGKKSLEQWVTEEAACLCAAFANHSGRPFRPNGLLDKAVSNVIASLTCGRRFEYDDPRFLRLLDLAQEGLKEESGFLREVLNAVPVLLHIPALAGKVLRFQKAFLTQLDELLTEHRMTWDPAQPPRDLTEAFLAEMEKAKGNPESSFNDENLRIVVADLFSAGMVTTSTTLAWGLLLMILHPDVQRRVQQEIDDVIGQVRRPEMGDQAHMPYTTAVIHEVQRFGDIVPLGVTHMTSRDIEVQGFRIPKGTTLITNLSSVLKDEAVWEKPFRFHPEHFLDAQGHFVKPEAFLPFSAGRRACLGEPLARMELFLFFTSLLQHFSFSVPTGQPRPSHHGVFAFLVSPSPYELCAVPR
Summary of the method: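 P450-Glo CYP2D6 system: proluciferin substrate converted by enzyme to luciferin, read by luminescence proportional to activity. Enzyme-substrate mix with compound 10 min at room temperature, then NADPH regeneration 1 h before detection reagent.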

[2] = target: Cytochrome P450 2C9 (Homo sapiens) (UniProt P11712); assay: Cytochrome P450 family 2 subfamily C member 9 (CYP2C9) small molecule antagonists: luciferase biochemical (cell-free) qHTS assay (AID 1645842); further: nearly all actives have a fitted effect of over 55% in size; further: potency means the concentration at half of the fitted maximal effect
Sequence of UniProt P11712 (P11712 whole entry, looked up): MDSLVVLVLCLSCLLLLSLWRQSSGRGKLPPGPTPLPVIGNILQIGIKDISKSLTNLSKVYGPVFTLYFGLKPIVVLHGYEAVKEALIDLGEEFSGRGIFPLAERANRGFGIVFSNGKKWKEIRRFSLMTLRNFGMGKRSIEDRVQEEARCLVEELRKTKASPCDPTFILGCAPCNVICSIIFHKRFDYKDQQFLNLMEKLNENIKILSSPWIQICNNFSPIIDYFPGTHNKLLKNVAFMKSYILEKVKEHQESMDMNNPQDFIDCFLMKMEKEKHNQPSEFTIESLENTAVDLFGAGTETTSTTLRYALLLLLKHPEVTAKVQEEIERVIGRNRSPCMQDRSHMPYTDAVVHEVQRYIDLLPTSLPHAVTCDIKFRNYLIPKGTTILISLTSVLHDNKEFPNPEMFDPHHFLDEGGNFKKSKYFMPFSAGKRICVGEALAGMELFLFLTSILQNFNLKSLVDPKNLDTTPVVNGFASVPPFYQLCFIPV
Summary of the method: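 P450-Glo CYP2C9 system: proluciferin substrate with enzyme in mix containing 0.4% BSA, 10 min at room temperature, then NADPH regeneration solution added and incubated 1 h at 37C. Detection reagent stopped reaction; luminescence read after 20 min as RLU.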

[3] = Primary qHTS for inhibitors of nuclear receptor binding SET domain protein 2 (NSD2) in an RCH-ACV wild type WT cells (2C) (AID 1645877; active means well fitted curve in the direction sought with a large enough effect; inconclusive means small, poorly fitted or top-dose-only effect, or another doubt; inactive means no such curve, though single readings can be large; an effect the other way counts as inactive or inconclusive; further: nearly all actives have a fitted effect of over 70% in size; further: potency means the concentration at half of the fitted maximal effect); settings: activity change, negative = cell killing: at 44.9 µM (top of the series) unless noted
[4] = Primary qHTS for inhibitors of nuclear receptor binding SET domain protein 2 (NSD2) in an isogenic RCH-ACV NSD2 p.E1099K mutant (9B) (AID 1645876; active means well fitted curve in the direction sought with a large enough effect; inconclusive means small, poorly fitted or top-dose-only effect, or another doubt; inactive means no such curve, though single readings can be large; an effect the other way counts as inactive or inconclusive; further: potency means the concentration at half of the fitted maximal effect; nearly all actives have a fitted effect of over 70% in size)
[5] = target: N-terminal Xaa-Pro-Lys N-methyltransferase 1 (Homo sapiens) (UniProt Q9BV86); assay: Confirmatory qHTS for Inhibitors of N-terminal methyltransferase 1 (NTMT1): MTaseGlo Assay (AID 1645874; active means well fitted curve in the direction sought with a large enough effect; inconclusive means small, poorly fitted or top-dose-only effect, or another doubt; inactive means no such curve, though single readings can be large; an effect the other way counts as inactive or inconclusive;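 further: luminescence from SAH made as NTMT1 methylates SPKRIA peptide using SAM; nearly all actives have a fitted effect of over 65% in size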)
Sequence of UniProt Q9BV86 (Q9BV86 whole entry, looked up): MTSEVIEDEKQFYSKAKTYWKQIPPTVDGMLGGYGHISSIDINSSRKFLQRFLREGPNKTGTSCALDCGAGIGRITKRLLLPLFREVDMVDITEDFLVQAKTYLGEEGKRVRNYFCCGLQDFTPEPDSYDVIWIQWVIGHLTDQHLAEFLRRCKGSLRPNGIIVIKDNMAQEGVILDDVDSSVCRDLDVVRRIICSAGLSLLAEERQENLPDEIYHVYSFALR
Summary of the method: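 Room-temperature NTMT1 reaction, 30 min, with 100 uM SAM and 1 uM SPKRIA substrate; enzyme 125 nM. Read-out: MTase-Glo luminescence, normalized to no-enzyme and DMSO controls.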

[6] = target: Cytochrome P450 3A4 (Homo sapiens) (UniProt P08684); assay: Cytochrome P450 family 3 subfamily A member 4 (CYP3A4) small molecule antagonists: luciferase qHTS assay (AID 1645841); further: potency means the concentration at half of the fitted maximal effect; nearly all actives have a fitted effect of over 45% in size
Sequence of UniProt P08684 (P08684 whole entry, looked up): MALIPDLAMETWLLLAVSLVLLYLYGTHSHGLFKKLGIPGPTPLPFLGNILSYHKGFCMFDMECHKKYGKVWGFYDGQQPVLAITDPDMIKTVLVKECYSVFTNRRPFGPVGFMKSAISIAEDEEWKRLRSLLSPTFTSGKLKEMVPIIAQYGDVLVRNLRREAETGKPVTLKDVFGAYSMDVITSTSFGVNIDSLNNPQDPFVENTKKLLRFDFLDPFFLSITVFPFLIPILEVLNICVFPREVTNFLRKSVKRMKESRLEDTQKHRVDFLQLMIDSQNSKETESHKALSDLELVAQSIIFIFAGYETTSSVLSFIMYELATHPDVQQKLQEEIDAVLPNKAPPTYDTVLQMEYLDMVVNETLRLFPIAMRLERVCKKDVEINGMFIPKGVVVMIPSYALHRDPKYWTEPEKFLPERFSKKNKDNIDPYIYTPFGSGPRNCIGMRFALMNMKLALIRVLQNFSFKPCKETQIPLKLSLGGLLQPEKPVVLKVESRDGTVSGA
Summary of the method: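 Luminescent CYP3A4 activity readout: compounds plus enzyme-substrate mix 10 min at room temperature, reaction started with NADPH regenerating system for 1 h, stopped with detection reagent, read after 20 min. Ketoconazole served as control.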

Papain (Carica papaya) = Papain (Carica papaya) (UniProt P00784); assay: Primary qHTS assay for inhibitors of the protease papain (AID 1645873; active means well fitted curve in the direction sought with a large enough effect; inconclusive means small, poorly fitted or top-dose-only effect, or another doubt; inactive means no such curve, though single readings can be large; an effect the other way counts as inactive or inconclusive;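 further: papain turnover of Z-FR-AMC read as the AMC fluorescence gain over 10 min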)
Sequence of UniProt P00784 (P00784 whole entry, looked up): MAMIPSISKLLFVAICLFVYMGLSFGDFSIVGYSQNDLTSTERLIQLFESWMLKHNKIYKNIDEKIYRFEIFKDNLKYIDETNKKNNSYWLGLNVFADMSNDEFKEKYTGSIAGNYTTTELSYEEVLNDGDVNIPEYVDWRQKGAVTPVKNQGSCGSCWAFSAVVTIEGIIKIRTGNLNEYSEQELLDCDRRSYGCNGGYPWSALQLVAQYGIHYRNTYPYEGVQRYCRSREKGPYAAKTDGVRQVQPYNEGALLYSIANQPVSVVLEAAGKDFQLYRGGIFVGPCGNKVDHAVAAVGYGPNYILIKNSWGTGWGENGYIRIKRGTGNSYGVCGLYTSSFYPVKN
Tags describe the fitted curve by direction and shape.

Which results are given for `CNNCc1ccc(C(=O)NC(C)C)cc1`?
Potency [1]: inactive; Potency [2]: inactive; Potency [3]: inactive

For `C#Cc1cccc(Nc2ncnc3cc(OCCOC)c(OCCO)cc23)c1`, which Potency [1] is on record?
Its Potency is active: 8.49 µM.

And the Potency [2]?
Its Potency is inconclusive: 9.52 µM [inhibitor, partial curve].

What about the Potency [4] of the same compound?
The Potency was active: 14.8 µM.

With `CCCCc1nc2cc(C=CC(=O)NO)ccc2n1CCN(CC)CC` as the compound, how does the Potency [1] read?
Its Potency is active: 12 µM.

And the Potency [2]?
Its Potency is inconclusive: 26.8 µM [inhibitor, single point].

What does the source list for `OCCn1cc(-c2cnc3nnn(Cc4ccc5ncccc5c4)c3n2)cn1`?
Potency [1]: inactive; Potency [5]: inactive

For `COc1cc2c(cc1OC)[C@@H]1CC(=O)[C@@H](CC(C)C)CN1CC2`, which Potency [1] is on record?
Its Potency is inconclusive: 9.77 µM [inhibitor, partial curve].

For `CCN1CCC[C@H]1CNC(=O)c1c(OC)ccc(Br)c1OC`, which Potency [1] is on record?
The Potency was inconclusive: 19.5 µM [inhibitor, partial curve].

And the Potency [3]?
The Potency was “inactive”.

For `O=S(=O)(O)c1ccc2c(N=Nc3ccc(S(=O)(=O)O)c4ccccc34)c(O)c(S(=O)(=O)O)cc2c1`, which Potency [1] is on record?
Its Potency is inconclusive: 19 µM [inhibitor, single point].

And the Potency [6]?
The Potency was inconclusive: 13.5 µM [falling, partial curve].

Which Potency [1] does the source give for `CC#C[C@]1(O)CC[C@H]2[C@@H]3CCC4=CC(=O)CCC4=C3[C@@H](c3ccc(N(C)C)cc3)C[C@@]21C` here?
The Potency was inconclusive: 7.76 µM [inhibitor, partial curve].

And the Potency (Papain (Carica papaya))?
Its Potency is “inactive”.

And the Potency [4]?
Its Potency is inconclusive: 33.5 µM [inhibitor, single point].

And the Potency [3]?
The Potency was inconclusive: 33.5 µM [inhibitor, single point] and inconclusive: 33.2 µM [inhibitor, single point].
